Residue numbers refer to the chain shown, from its start.
Key:
[1] = biological target: Aβ1-42 fibers (human); experiment: SPR
[2] = biological target: Aβ1-40 fibers (human); experiment: SPR

B1: MS-R 3 Fab (antibody, V domains shown)
VH: [not shown - about 100 residues]LTHYARYYRYFDVWGQGTLVTVSS
VL: DIVLTQSPATLSLSPGERATLSCRASQSVSSSYLAWYQQKPGQAPRLLIYGASSRATGVPARFSGSGSGTDFTLTISSLEPEDFAVYYCQQVYNPPVTFGQGTKVEIKR
**Q.** How did the Kd [1] turn out when B1 was run?
**A.** Its Kd is 1300 nM.

**Q.** And the Kd [2]?
**A.** The Kd was 930 nM.

B2: MS-R 8 Fab (antibody, V domains shown)
VH: [not shown - about 100 residues]LLSRGYNGYYHKFDVWGQGTLVTVSS
VL: B1 VL with V86T, V92L, Y93S, N94S, P95F, V97P
**Q.** For B2, which Kd [1] is on record?
**A.** The Kd was 1000 nM.

**Q.** What about the Kd [2] of the same binder?
**A.** Its Kd is 850 nM.

From patent US7794719 (dated 2010)
